Data from article PMC12136788.
This is one part of the list.

T1: UNK ZnF1-6 (called full-length) (human, UniProt Q9C0B0 30-357)
T1 sequence: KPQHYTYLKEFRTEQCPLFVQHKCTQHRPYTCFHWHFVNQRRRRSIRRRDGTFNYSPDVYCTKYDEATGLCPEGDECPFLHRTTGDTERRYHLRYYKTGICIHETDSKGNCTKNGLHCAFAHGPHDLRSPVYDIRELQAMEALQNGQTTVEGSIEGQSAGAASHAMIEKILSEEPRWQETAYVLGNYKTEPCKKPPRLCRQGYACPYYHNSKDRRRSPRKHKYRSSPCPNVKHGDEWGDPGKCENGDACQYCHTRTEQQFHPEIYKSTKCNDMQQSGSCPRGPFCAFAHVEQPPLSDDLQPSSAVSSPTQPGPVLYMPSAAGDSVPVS

B1: chr3:98797553:98797658:-|3pUTR|ENSG00000057019|msi1|FALSE|unique (ssRNA)
RNA: GGGAGUUCUACAGUCCGACGAUCAUUUCAUUCAUUGAAGAAUCAAUACAUAUUUUGUUUCAAAAUGUUUGAAACAAAAGACAUAGAUGGUAGACUUUUAUUAAAACAUAUAUGGAUGUGGAAAGCACAUAUAUUAAUGCAGUCCAACAGAGGAUUGAGCAUCA
B2: chr17:29548703:29548809:+|3pUTR|ENSG00000160551|unk|total|mutant (ssRNA)
RNA: GGGAGUUCUACAGUCCGACGAUCAGCACUUGUGAGUGAAAAAUCAUGUAAUUAUCUGUAAAUAUGCCGCUAACAAAUUGACCCCGUUUCUGUAUUUUUUUGUUUUUGUACUAAAGUUUACCGGUCUGUGCCAGCCCGAGAGAACAACAGAGGAUUGAGCAUCA
B3: chr10:30336814:30336915:-|CDS|ENSG00000107951|unk|FALSE|unique (ssRNA)
RNA: GGGAGUUCUACAGUCCGACGAUCGUAUUUUCCAGACUGCAUAGUCAGACCCUUUGGCUCCUCAGUCAACACUUUUGGGAAGUUAGGAUGUGAUUUGGACAUGUUUUUGGAUCUAGAUGAAACCAGAAACCUCAGCGCUCACAACAACAGAGGAUUGAGCAUCA
B4: chr8:100258838:100258944:-|CDS|ENSG00000034677|unk|FALSE|unique (ssRNA)
RNA: GGGAGUUCUACAGUCCGACGAUCAGUGAAUUUGAGGCUCCAUCCCUCAGUGACAGUAUGCCUUCUGUAGCAGAUUCUCACUCUAGUCAUUUUUCUGAAUUUAGUUGUUCUGACCUAGAAAGCAUGAAAACUUCUUGUAGUCAUCAACAGAGGAUUGAGCAUCA
B5: ENSG00000198663:stop:overlap|stop_codon|ENSG00000198663|stop_codon|NA|stop_codon (ssRNA)
RNA: GGGAGUUCUACAGUCCGACGAUCUUAUAGCCAGAGGGGUCCAGCCUUUGGUCAUCUGCGAUGGAACCGCUUUCUCAGAACUGUAGGAAAUAGAACUGUGCACAGGAACAGCUUCCAGAGCCGAAAACCAGGUUGAAAGGGGAACAACAGAGGAUUGAGCAUCA
B6: ENSG00000139350:stop:overlap|stop_codon|ENSG00000139350|stop_codon|NA|stop_codon (ssRNA)
RNA: GGGAGUUCUACAGUCCGACGAUCAUUUAUCUAGUACUCCUUUUGGCCAUGGUAGUAACCAGGCUCUCCAAUCCAGUGUUGAAUAGAAGUGAUGAUAGUGGACAUCUUUAUUUUGUCCCCAAAUUCUGGAAGAAGCAUUCAAUUCAACAGAGGAUUGAGCAUCA
B7: chr2:74214837:74214938:+|3pUTR|ENSG00000065911|msi1_unk|total|mutant (ssRNA)
RNA: GGGAGUUCUACAGUCCGACGAUCCUGUCCUUUUGAGGCUCCGUCAGUUUAUUGGGAAAAUGUUCCGGAUUAUUCCUUGCUAUCCGUACUCAUUUUAUGUAUGUUACCCUUCAGUAAGUUCUCCCCAUUUCCGUUUUCCCGGACCAACAGAGGAUUGAGCAUCA
B8: chr2:42282796:42282970:+|CDS|ENSG00000143924|unk|FALSE|unique (ssRNA)
RNA: GGGAGUUCUACAGUCCGACGAUCAUAUGGUUAUCGAGGAAAGGACUGUAGAGCUAAUGUUUACCUUCUUCCGACCGGGAAAAUAGUUUAUUUCAUUGCAUCAGUAGUAGUACUAUUUAAUUAUGAGGAGAGAACUCAGCGACACAACAGAGGAUUGAGCAUCA
B9: chr12:100341478:100341579:+|3pUTR|ENSG00000136021|unk|total|mutant (ssRNA)
RNA: GGGAGUUCUACAGUCCGACGAUCCUAUUCUCCUAUUGCUAAAUGUGUGAUAUACCGAGAGGAUGUAUAAAAGGAAAUGGAAACCGACUAUGUACUUGUCUGGUUUUUGUUUGUUUUUAUUUUGGAAUGCUUAUAAGCCUCCUUCAACAGAGGAUUGAGCAUCA
B10: ENSG00000136451:be:win_3051|3pUTR|ENSG00000136451|bound_else_gene|NA|bound_elsewhere_windowed (ssRNA)
RNA: GGGAGUUCUACAGUCCGACGAUCUGUGUUAAUCUUGCAGAAUGUUUGCAGGACUGACUAUCAAACUGGAUGAUUUCCAUUUAUACCCUACUGUGUCAGUUCAAGCAUCAAAAUACCUUGCAUCUGAGACAGACUUCCUACAUCCAACAGAGGAUUGAGCAUCA
B11: chr11:103061782:103061883:-|3pUTR|ENSG00000137692|unk|FALSE|unique (ssRNA)
RNA: GGGAGUUCUACAGUCCGACGAUCAAGACUGUUGGCCUUGACUUCUGGGAUAAUGAUUUGCUGAUGCAGCUAAUAAACAUUUCUAGGUAUUGGAAAAAUGCUCCUACUUUUAGCUCUGGGUUUCUAUAAAAGCUGCCAAGGUCUCAACAGAGGAUUGAGCAUCA
B12: chr15:34980028:34980129:-|3pUTR|ENSG00000198146|msi1|total|mutant (ssRNA)
RNA: GGGAGUUCUACAGUCCGACGAUCGGUUCUGUUAUUUAAGCCUGUUCUAAGUUUGAUCAAAUGGCAAUGACCCGGUCCCGUUUCCGUUUUUAUUUUUGCAGGAGUCUAUUGCUAAAGAAUUUUAUUUUGAUGCUUGUUAAAUUUCAACAGAGGAUUGAGCAUCA
B13: ENSG00000140939:stop:overlap|stop_codon|ENSG00000140939|stop_codon|NA|stop_codon (ssRNA)
RNA: GGGAGUUCUACAGUCCGACGAUCCGAGUCCGAAGAUUCCUGAAGGCCAGAGCUCUGACAGGCGGUGCCCCGCCCAUGCUGGAUAGGACCUGGGAUGCUGCUGGAGCUGAAUCGGAUGCCACCAAGGCUCGGUCCAGCCCAGUACAACAGAGGAUUGAGCAUCA
B14: chr1:88684422:88684524:+|5pUTR|ENSG00000065243|unk|FALSE|unique (ssRNA)
RNA: GGGAGUUCUACAGUCCGACGAUCUCGAUGAACCGGACGGAAUAAGCCGCGCCUCCAGCAGGGGCUGCGCCUCCAUGAAUCCCUAGUUGUUUUUUUUUUUUUCUUUCUCUCCCCUCUCCUCACCCCCACCCCGAGCCCCGUCCCCAACAGAGGAUUGAGCAUCA
B15: chr15:59095394:59095499:+|3pUTR|ENSG00000157450|unk|total|mutant (ssRNA)
RNA: GGGAGUUCUACAGUCCGACGAUCUAAAUACCAUCCUUAAUACUGGGAACAGAAUACAACCCAUAUAAAUCAGAUGCAGGUGGCCGUCACAUCACCAGAGUGAUCAGUAUAAAUUUUCUUGGUGUAUCCUUUUCCUUUCAACACCAACAGAGGAUUGAGCAUCA
B16: chr15:38484694:38484795:+|3pUTR|ENSG00000171262|unk|total|mutant (ssRNA)
RNA: GGGAGUUCUACAGUCCGACGAUCAUCCGAAACCGUGUUCCAAAUAACAUACUUGAAUAUCAUCUUUGAAGUAAACACCAUGUCCGACUCCCUGGUGAUACCACUCUUGAAUUGGUUAAUAUGUAAGAACAUUGUUUUUUAUUACAACAGAGGAUUGAGCAUCA
B17: ENSG00000181544:stop:overlap|stop_codon|ENSG00000181544|stop_codon|NA|stop_codon (ssRNA)
RNA: GGGAGUUCUACAGUCCGACGAUCAUACUUCAUGUGAGUGGAAUCAUAGAGUAUUUAUAUUUUUGUACCUGGCUUAUUUUACUUAGCAUAAUGUCCUUGAGGUUCAUUCGUGUCAUAGCUUGUGACACUAUUUCCUUCUGUUUACAACAGAGGAUUGAGCAUCA
B18: chr20:11926050:11926151:+|3pUTR|ENSG00000132640|msi1|total|mutant (ssRNA)
RNA: GGGAGUUCUACAGUCCGACGAUCAUGAAAUGGAAUGAAGGCUAAUAUGCUUGCUUUAUUUACUUUUGUAAUCUUGGAUUUUGCCGCUUUUAAAACCCGAAACCAUUGUUCUAACAAAGCAGGCAACUUUAUUCUAUAAACACACAACAGAGGAUUGAGCAUCA
B19: chr5:150657389:150657496:+|3pUTR|ENSG00000171992|unk|FALSE|bound_elsewhere (ssRNA)
RNA: GGGAGUUCUACAGUCCGACGAUCCUCUCUCUCUCUCUCACACACACACACACACACACACACACACACACACACACACACACUAGUUAGUGCCUUGGAUGAGGCGGGGCAGUGUGUAUAUGGACCCCUGGACUUGCUACCUUCCAACAGAGGAUUGAGCAUCA
B20: chr6:41099391:41099486:+|3pUTR|ENSG00000001167|msi1_unk|FALSE|overlapping (ssRNA)
RNA: GGGAGUUCUACAGUCCGACGAUCAGUGCUUAAGCUGCCAACAGUUAGAAGAUGCUAUUUAUUUGUGUCUGUAAGUUUGUACAUAGUAAUGCCAGCCUUGUUGCUGAAUUUUUUAUUUGGGGGGAGAUGACUUUGAAUUUUGUUCAACAGAGGAUUGAGCAUCA
B21: ENSG00000070961:be:win_5251|3pUTR|ENSG00000070961|bound_else_gene|NA|bound_elsewhere_windowed (ssRNA)
RNA: GGGAGUUCUACAGUCCGACGAUCUGGAUUCUUUAGCUCUCUUUUUCUUUCCUUCAUCUACCUUCUUCUCUUUUUUGCCUCUGUCUUUACCCUUUAGAAACUGGCAUGUGUUAGGGCCCAGAUUUCACCAGAUACACAAUCCUCCAACAGAGGAUUGAGCAUCA
B22: chr2:20282997:20283108:-|CDS|ENSG00000055917|unk|FALSE|unique (ssRNA)
RNA: GGGAGUUCUACAGUCCGACGAUCACUAAUCUGCAAUCUAAUUCAUUUUAUGGAAGCAGUUCUUUGACUAAUAGCUCCCAGAGUAGUUCUUUAUUUUCUCAUGGACCUGGUCAACCUGGAAGUACAUCUCUUGGCUUUGGAAGUCAACAGAGGAUUGAGCAUCA

What follows are binders tested against T1, UNK ZnF1-6 (called full-length) (assay: nsRBNS (natural sequence RNA bind-n-seq); RBNS binding buffer (assumed for nsRBNS): 25 mM Tris pH 7.5, 150 mM KCl, 3 mM MgCl2, 0.01% Triton X-100, 500 ug/ml BSA, 20 U/ml SUPERase-In, 4 C; UNK is unkempt and MSI1 is Musashi-1; names of the RNAs are library labels; protein concentration not given here; high values mean tight binding).

Question: B1 was tested. Which binding signal did it give?
Answer: 1.11 enrichment R

Question: Which binding signal does the source give for B2 here?
Answer: 0.49 enrichment R

Question: B3 was tested. Which binding signal did it give?
Answer: 0.644 enrichment R

Question: With B4 as the binder, how does the binding signal read?
Answer: 13.2 enrichment R

Question: With B5 as the binder, how does the binding signal read?
Answer: 0.402 enrichment R

Question: B6 was tested. Which binding signal did it give?
Answer: 1.19 enrichment R

Question: How did the binding signal turn out when B7 was run?
Answer: 0.338 enrichment R

Question: How did the binding signal turn out when B8 was run?
Answer: 3.02 enrichment R

Question: With B9 as the binder, how does the binding signal read?
Answer: 0.311 enrichment R

Question: B10 was tested. Which binding signal did it give?
Answer: 0.215 enrichment R

Question: How did the binding signal turn out when B11 was run?
Answer: 0.656 enrichment R

Question: For B12, which binding signal is on record?
Answer: 0.612 enrichment R

Question: With B13 as the binder, how does the binding signal read?
Answer: 0.585 enrichment R

Question: With B14 as the binder, how does the binding signal read?
Answer: 39 enrichment R

Question: B15 was tested. Which binding signal did it give?
Answer: 0.366 enrichment R

Question: Which binding signal does the source give for B16 here?
Answer: 0.409 enrichment R

Question: How did the binding signal turn out when B17 was run?
Answer: 0.545 enrichment R

Question: B18 was tested. Which binding signal did it give?
Answer: 0.466 enrichment R

Question: B19 was tested. Which binding signal did it give?
Answer: 2.02 enrichment R

Question: With B20 as the binder, how does the binding signal read?
Answer: 3.8 enrichment R

Question: B21 was tested. Which binding signal did it give?
Answer: 1.45 enrichment R

Question: For B22, which binding signal is on record?
Answer: 3.69 enrichment R
